Assay results as given in article PMC6919601, “Identification of Plasmodium dipeptidyl aminopeptidase allosteric inhibitors by high throughput screening” (PLoS ONE, 2019).
Among all 110,000 compounds or so, about 230 (0.21%) showed an effect of 50% or more. The list shows a part of the results.

molecular target: DPAP1 (Plasmodium falciparum, UniProt Q8IIJ9); test: primary screen, percent inhibition; read by cleavage of a fluorogenic dipeptide substrate; higher = more effect of the substance; set-up: species or system P. falciparum D10 trophozoite lysates; single well
Sequence (Q8IIJ9 whole entry, looked up): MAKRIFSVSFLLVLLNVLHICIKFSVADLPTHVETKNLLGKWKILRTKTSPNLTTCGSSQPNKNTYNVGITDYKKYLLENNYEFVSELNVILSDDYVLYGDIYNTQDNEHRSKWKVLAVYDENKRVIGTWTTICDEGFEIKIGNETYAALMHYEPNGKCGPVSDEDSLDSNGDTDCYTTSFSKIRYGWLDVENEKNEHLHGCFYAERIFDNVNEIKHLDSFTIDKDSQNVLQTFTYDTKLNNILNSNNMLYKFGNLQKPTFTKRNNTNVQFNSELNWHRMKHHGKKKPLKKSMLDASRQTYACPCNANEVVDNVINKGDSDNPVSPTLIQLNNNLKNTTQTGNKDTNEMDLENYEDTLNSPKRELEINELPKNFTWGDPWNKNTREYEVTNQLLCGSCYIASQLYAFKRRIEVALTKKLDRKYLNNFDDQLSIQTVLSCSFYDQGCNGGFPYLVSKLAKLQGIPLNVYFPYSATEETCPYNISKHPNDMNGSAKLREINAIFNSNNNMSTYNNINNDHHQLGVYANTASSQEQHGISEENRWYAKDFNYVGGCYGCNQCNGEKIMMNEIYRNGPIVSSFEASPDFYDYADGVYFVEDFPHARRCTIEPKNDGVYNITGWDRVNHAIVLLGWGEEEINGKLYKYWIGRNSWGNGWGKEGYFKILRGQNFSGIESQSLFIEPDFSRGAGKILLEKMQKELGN
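Further: 30 min substrate incubation versus DMSO and 10 µM JCP410 controls.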

| SMILES | % Inhibition @ 10 uM |
| --- | --- |
| Cc1ccc(C(=O)O)c(C(=O)Nc2sc3c(c2C#N)CCC(C)C3)c1 (stereo not shown) | 3.05% |
| O=C1C(Cl)=C(Nc2ccc(F)cc2)C(=O)N1c1ccccc1 | -1.37% |
| COc1cccc(NC(=O)CN(c2cccc(Cl)c2)S(C)(=O)=O)c1 | -1.95% |
| CS(=O)(=O)N(CC(=O)NCc1ccc(Cl)cc1Cl)C1CCCCC1 | -0.992% |
| CNc1cc(C)nc(-c2ccc(Br)cc2)n1 | -4.15% |
| Cc1ccc(Cn2c(C)c3cnn(CC(=O)NCCN4CCN(C)CC4)c(=O)c3c2C)cc1 | 1.22% |
| Cc1cc(C)n(-c2cc(Oc3ccccc3)nc(C)n2)n1 | 2.03% |
| Cn1c(C(=O)N2CCN(C(=O)c3ccco3)CC2)cc2sccc21 | -4.85% |
| Cc1ccc(OCC(=O)Nc2ccccc2)cc1 | -0.116% |
| O=C(NCc1ccccc1Cl)c1cc(-c2ccccc2)c(N2CCOCC2)s1 | -2.83% |
| CC(=O)Nc1ccc(NC(=O)COc2ccc(Cl)cc2Cl)cc1 | 1.33% |
| O=C(CN1C(=O)S/C(=C/c2cc3c(cc2Br)OCO3)C1=O)Nc1ccccc1F | -1.43% |
| CCN1C(=O)c2ccc(C(=O)c3ccc(C(=O)O)cc3)cc2C1=O | -7.14% |
| CCN1CCC(NCC(c2ccccc2)c2ccccc2)CC1 | -5.44% |
| CC1(c2ccccc2)CC(C)(C)N(Cc2ccc([N+](=O)[O-])cc2)c2ccccc21 (stereo not shown) | 1.35% |
| COc1ccc(S(=O)(=O)Nc2cccc(C(F)(F)F)c2)cc1 | 0.526% |
| COc1ccc(CN2CCN(C(=O)Cn3ncc4ccsc4c3=O)CC2)c(OC)c1OC | 9.33% |
| Cn1cccc1Cc1nnc(SCC(=O)NCC2CCCO2)n1-c1cccc(C(F)(F)F)c1 (stereo not shown) | -4.97% |
| O=C(O)C1CCC(Cn2c(SCc3cc(=O)n4ccccc4n3)nc3ccsc3c2=O)CC1 (stereo not shown) | 6.5% |
| O=C1C2CC=CCC2C(=O)N1c1ccc(OCc2ccccc2)cc1 (stereo not shown) | 1.52% |
| CCC(=O)N1c2ccccc2N=C2CC(C)(C)CC(O)=C2C1c1cccc(OC)c1OC (stereo not shown) | 4.07% |
| O=C(NCCCN1CCOCC1)C1CC2CCC1C2 (stereo not shown) | -3.27% |
| Fc1ccc(CN2CCN(c3ncccn3)CC2)cc1F | -3.72% |
| CC1=C(C#N)C(=O)N(CCc2ccccc2)C(=O)/C1=C/c1ccc(-c2ccc(S(N)(=O)=O)cc2)o1 | 0.884% |
| CC(C)C[C@@H](C(=O)NC1(C#N)CC1)c1cccc(-c2ccc(N3CCN(C(C)(C)C)CC3)cc2)c1 | -1.41% |

| SMILES | % Inhibition @ 10 uM |
| --- | --- |
| CCOC(=O)/C=C/C1C[C@@H]1c1ccccc1 (stereo partly shown) | 1.4% |
| Cn1c2ccccc2c2nnc(N3CCN(Cc4ccccc4)CC3)nc21 | -7.32% |
| O=C1C(=O)N(CN2CCc3ccccc3C2)c2ccc(Br)cc21 | 5.12% |
| CC1(C)CC2=Nc3ccccc3NC(c3cccc([N+](=O)[O-])c3)C2=C(O)C1 (stereo not shown) | 3.74% |
| Cc1ccc(C2=CC(c3ccc(F)c(Br)c3)n3nnnc3N2)cc1 (stereo not shown) | -7.32% |
| O=C(c1scc2c1CCCC2)N1CCOCC1 | 4.11% |
| COCCNC(=O)C1CCCN(c2nnc(-n3cccc3)s2)C1 (stereo not shown) | -2.25% |
| CCn1cc(CNC(=O)c2cc3n(n2)C(C(F)(F)F)CC(c2ccco2)N3)c(C)n1 (stereo not shown) | -0.958% |
| CCOCCCNC(=O)/C(C#N)=C/c1c(Oc2ccc(OC)cc2)nc2ccccn2c1=O | -1.86% |
| Cc1ccc(S(=O)(=O)NCCC(=O)NCCN2CCCCCC2)cc1 | -3.12% |
| O=C1NC2(CCN(C(=O)c3ccc4c(c3)OCO4)CC2)N=C1c1ccc(Cl)cc1 | 6.31% |
| O=C(CSc1ncnc2c1sc1ccccc12)NCc1ccccc1Cl | -0.406% |
| Cc1ccc(NC(=O)/C=N/O)c(C)c1 | 1.42% |
| Cc1n[nH]c(C)c1N1C(=O)c2cccc3c(Br)ccc(c23)C1=O | -3.83% |
| CN(C(=O)c1cc2ccccn2c1)c1ccccc1 | -2.65% |
| CC(C(=O)NCc1ccccn1)n1c2ccccc2c2cnnc(O)c21 (stereo not shown) | 4.55% |
| Cc1cc(C)c2c(-n3cccc3)c(C(=O)N3CCN(Cc4ccccc4)CC3)sc2n1 | -1.3% |
| O=C(NC1CC1)c1ccc(CS(=O)(=O)c2c(Cl)cccc2Cl)o1 | 8.39% |
| CCOC(=O)C(/C=N/c1cccc(C)n1)=C(/O)OCC | -5.36% |
| Cc1ccc(S(=O)(=O)N(CC(=O)N2CCOCC2)c2ccc(C)c(C)c2)cc1 | 3.53% |
| O=C(c1ccc(O)cc1)c1ccc(C(=O)O)c(C(=O)O)c1 | -3.48% |
| O=C1c2ccc(F)cc2C(=O)N1CCO | 0.912% |
| CCOc1ccc(CNC(=O)C2CC(=O)N(C3CCCC3)C2)cc1OC (stereo not shown) | 3.79% |
| COc1ccc2c(c1OC)C(=O)N(c1cccc(F)c1)C2=O | -1.37% |
| CCOC(=O)c1cc(S(=O)(=O)N2CCN(C(=O)OCC)CC2)cn1C | -1.06% |

| SMILES | % Inhibition @ 10 uM |
| --- | --- |
| CN(C)CCN(C)Cc1cccc(Cl)c1 | 1.83% |
| COC(=O)C1=CN(Cc2ccc(Cl)cc2)C=C(C(=O)OC)C1c1ccccc1OC(C)C | 4.99% |
| N#Cc1c(N)n(-c2cccc(S(N)(=O)=O)c2)c2nc3ccccc3nc12 | 3.31% |
| NC1=NC(=O)/C(=C\c2ccc(-c3ccc(Cl)c(Cl)c3)o2)S1 | 31.8% |
| COc1ccc(S(=O)(=O)N2CCCC2C(=O)O)cc1OC (stereo not shown) | 3.65% |
| O=C(Nc1cnn(C23CC4CC(CC(C4)C2)C3)c1)C1CC(c2c(F)cccc2Cl)=NO1 (stereo not shown) | 5.12% |
| CN1C2CCC1CC(OC(=O)CCN1CCCCC1)C2 (stereo not shown) | -0.687% |
| Cc1ccc(C(=O)Nc2ccccc2O)cc1 | 0.135% |
| CC(C)N(CCCNC(=O)Nc1cn(C)c(=O)c2ccccc12)Cc1ccccc1 | 5.12% |
| CCC(CC)CC(NC(=O)c1ccc(C(C)(C)C)cc1)C(=O)NCC#N (stereo not shown) | -3.04% |
| COc1cc(/C=C(\C#N)c2[nH]nc(N)c2C#N)ccc1O | -0.995% |
| Cc1ccc(S(=O)(=O)Cc2nc(-c3ccc(C(=O)NC(C)c4ccccc4)cc3)oc2C)cc1 (stereo not shown) | 0.107% |
| CCn1ncc(Br)c1C(=O)Nc1ccc(S(=O)(=O)Nc2ccc(OC)cc2)cc1 | -4.43% |
| COc1ccc(C)cc1N(CC(N)=O)S(=O)(=O)c1ccc(C)cc1 | 0.189% |
| COCCCNC(=O)c1ccc(CS(=O)c2ccccc2Cl)o1 (stereo not shown) | -0.716% |
| Cc1c(CNC(=O)c2cccc(Br)c2)cnn1C | 4.49% |
| Cc1ccc(-c2onc(C)c2C)cc1S(=O)(=O)N1CCOCC1 | -4.51% |
| CCCCc1nc2ccccc2c(=O)n1-c1ccc(OC)cc1 | 4.67% |
| CCOc1ccc(NC2OC(CO)C(O)C2O)c([N+](=O)[O-])c1 (stereo not shown) | 6.31% |
| COc1ccc(CN2CCN(Cc3cccc(C)c3)CC2)c(OC)c1OC | 53.3% |
| CCC1CCCCN1CCCNC(=O)c1ccc(CS(=O)(=O)c2ccccc2C)o1 (stereo not shown) | 0.458% |
| OC1(c2ccc(Br)cc2)CCN(Cc2ccccc2)CC1 | 6.26% |
| COc1ccccc1Cn1nnc2c(O)nc(C3CCN(C(=O)c4ccccc4Cl)CC3)nc21 | 1.12% |
| Cc1ccccc1NC(=O)c1onc2c1CCCC2 | 4.31% |
| CCCOc1ccc(C(=O)C2=C(O)C(=O)N(c3ccccn3)C2c2ccc(OC)cc2)cc1C (stereo not shown) | 4.74% |

| SMILES | % Inhibition @ 10 uM |
| --- | --- |
| CCOc1ccc(Nc2nc(N)nc(CN(C)C3CCCCC3)n2)cc1 | 4.31% |
| Cc1cc2nc(NC3=NCN(Cc4ccc(Cl)cc4)CN3)nc(C)c2cc1C | 0.0539% |
| COc1cc(C2C(C#N)=C(N)Oc3[nH]nc(-c4cccnc4)c32)cc(Br)c1O (stereo not shown) | 2.49% |
| CCC(CC)C(=O)Nc1ccc(NC(=O)C(CC)CC)cc1 | 5.69% |
| CC(C)CC(NC(=O)c1cccc(NC(=O)Nc2cccc(C(=O)NC(CC(C)C)C(=O)NCC#N)c2)c1)C(=O)NCC#N (stereo not shown) | -11% |
| Cc1ccc(COc2ncnc3[nH]cnc23)c(C)c1 | -3.09% |
| CCNC(=O)CN(C)S(=O)(=O)c1ccc(OC)c(OC)c1 | 2.86% |
| Cc1cccc(-n2nc3c(c2NC(=O)/C=C\c2ccc4c(c2)OCO4)CSC3)c1C | -4.32% |
| CC(C)C[C@H](NC(=O)c1ccc(-c2csc(N=C(N)N)n2)cc1)C(=O)N[C@@H](CCCCNC(=O)OCc1ccccc1)C(=O)O | -1.41% |
| CC(C(=O)NCCc1ccc(Cl)cc1)n1ccc2cc(S(=O)(=O)N3CCCC3)ccc21 (stereo not shown) | -1.39% |
| O=c1c2nccnc2nc(SCc2cccc(Cl)c2)n1Cc1ccc2c(c1)OCO2 | -5.01% |
| COc1ccc(C2C3=C(O)CCCC3=Nc3nc(SCc4ccc(C(=O)O)cc4)nn32)cc1 (stereo not shown) | 1.62% |
| COC(=O)c1cnn2c1NCN(Cc1ccccc1Cl)C2 | 3.96% |
| Cn1c2ccccc2c2cnn(CC(=O)NCCC3=CCCCC3)c(=O)c21 | -7.36% |
| COCCCNC(=O)Nc1cn(CC(C)C)c(=O)c2ccccc12 | -2.71% |
| O=C1c2ccccc2NC(c2ccc3c(c2)OCO3)N1c1ccccc1 (stereo not shown) | -2.97% |
| CCOc1ccccc1C1C(C(=O)OC)=CN(C(C)C)C=C1C(=O)OC | -1.48% |
| Cc1ccccc1-n1nnnc1-c1ccc(-c2nnnn2-c2ccccc2C)cc1 | -0.818% |
| CSc1ccc(C2C(C#N)=C(N)Oc3cc(N)ccc32)cc1 (stereo not shown) | 7.65% |
| O=C(NC1(C(F)(F)F)C(=O)Nc2c1c(=O)[nH]c(=O)n2-c1ccc(F)cc1)c1ccccc1F (stereo not shown) | 0.475% |
| c1ccc2c(c1)c(N1CCOCC1)nn1nnnc21 | 5.86% |
| O=C(CN1CC(c2ccccc2)CC1=O)NC1C2CC3CC(C2)CC1C3 (stereo not shown) | -0.833% |
